Test results as given in PubChem BioAssay AID1963576 (National Center for Advancing Translational Sciences (NCATS), 2024).
The whole screen tested about 46,000 compounds, of which about 60 (0.1%) were called active. Roughly 3% stayed inconclusive and do not appear here. The call rests on the fitted dose curve; in most records, active means well fitted inhibition curve with a large enough effect; inconclusive means small, poorly fitted or top-dose-only effect; inactive means no such curve, though single readings can be large or run the other way. Some of the results follow.

Experiment: Primary qHTS assay for Inhibitors of ovarian cancer metastasis using an organotypic tumor microenvironment (TME) model. Further: nearly all actives have a fitted effect of over 65% in size.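 On activity change, negative = inhibition: plate controls were DMSO wells for no effect and tomatine positive control wells for full effect.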
Conditions: SKOV3ip1-GFP adhesion/invasion on 3D omental model, fluorescence; series mostly up to 45.8 µM; activity change, negative = inhibition: at the top concentration
Method in brief: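 Adhesion/invasion was scored as fixed GFP-labeled SKOV3ip1 cell counts (488/509 nm), normalized to DMSO and tomatine controls. Cancer cells in serum-free medium, with four compound doses (0.36-46 umol/L), sat 2 hr at RT then 16 hr at 37 C on a 48 hr fibroblast/mesothelial/ECM culture.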

outcome, inactive:
Cc1cc(C)n2c(Nc3ccc(C(C)C)cc3)c(-c3ccsc3)nc2n1, Cc1ccc2nc(Cl)c3cc(C(=O)N4CCCCC4C)sc3c2c1 (stereo unspecified), Cc1ccccc1Nc1nn2c(=O)c3ccc(C(=O)NCCc4ccc(Cl)cc4)cc3nc2s1, O=C(Cn1c(=O)nc(-c2ccccc2)c2cc(Cl)ccc21)N1CCN(c2ccccc2F)CC1, CCc1cc(C(=O)Nc2sc(C)c(CC)c2C#N)no1, C#CCOc1ccc(-c2nnc(Nc3ccc(NC(C)=O)cc3)c3ccccc23)cc1, CN(CC(=O)Nc1ccccc1F)S(=O)(=O)c1ccc2c(c1)c(=O)n(C)c(=O)n2C, O=C(NCc1ccccc1Cl)c1ccc2c(c1)N(Cc1ccccc1)C(=O)CS2, COc1ccc(CNC(=O)c2cc(=O)[nH]c3ccc(S(=O)(=O)N4CCCC4)cc23)c(OC)c1, CC(=O)c1cccc(NC(=O)C(CC(C)C)NS(=O)(=O)c2ccc3c(c2)CCN3C(C)=O)c1 (stereo unspecified), COc1ccc(-c2cc3nc(C)c(CCC(=O)N4CCN(c5ccc(F)cc5)CC4)c(C)n3n2)c(OC)c1, CC(=O)c1cccc(Nc2cc(C)nc3nc(Cc4ccccc4)nn23)c1, COc1ccccc1OCC(=O)NC1CC(=O)N(c2ccc3c(c2)OCCO3)C1 (stereo unspecified), COc1ccc2cc(-c3nnc(Nc4ccccc4)s3)c(=O)oc2c1, Cc1cccc(NC(=O)Cn2nc3c4ccccc4n(Cc4ccccc4)cc-3c2=O)c1, CC(=O)c1cc(-c2ccc(F)cc2)n(CC(=O)NC2CCC(C)CC2)c1C (stereo unspecified), Cc1ccccc1C(=O)OCc1cc(=O)n2nc(C(C)C)sc2n1, O=C(Nc1ccc(Cl)cc1)c1cc(S(=O)(=O)NC2CCCCCC2)ccc1F, O=C(CN1CCN(Cc2ccccc2Cl)C1=O)NCCc1ccc(Cl)cc1, CCOc1ccc(C(=O)Nc2ccc3c(c2)OCCO3)cc1Br, CCCNC(=O)C(Cc1ccccc1)NS(=O)(=O)c1ccc2c(c1)c(=O)n(C)c(=O)n2C (stereo unspecified)

Activity change, negative = inhibition, inactive:
CCc1nc2cccnc2n1-c1ccc(CC(=O)Nc2c(C)cccc2C)cc1 0.0746%, CCN(CC)C(=O)CSc1nc2ccsc2c(=O)n1Cc1ccccc1Cl 10.2%, Cc1ccc(-c2nc(CNC(=O)Nc3ccccc3)c(C)o2)cc1 -18.8%, COc1ccc(-c2cn3cccnc3n2)cc1NC(=O)Cc1ccccc1 -5.39%, COc1cccc(OCC(=O)NCCS(=O)(=O)N2CCN(c3ccccc3F)CC2)c1 -18%, Cc1oc2ncn(CC(C)C)c(=O)c2c1C(=O)NCCc1ccccc1 -0.277%, COc1ccc(Cl)cc1NC(=O)CN1C(=O)C(C)(C)c2cc(S(=O)(=O)N3CCCCC3)ccc21 0.0477%, O=P(O)(O)C(O)(Cc1cccnc1)P(=O)(O)O -24.8%, Cc1ccccc1CNC(=O)c1oc2c(c1C)-c1[nH]ncc1CC2 -1.71%, CCOc1ccc(C2c3c(oc4ccc(C)cc4c3=O)C(=O)N2CCCN2CCOCC2)cc1 (stereo unspecified) -3.83%, CCOc1ccc(Nc2c(S(=O)(=O)c3ccc(Cl)cc3)cnc3ccc(OCC)cc23)cc1 2.82%, Cc1cn(C)c(CC(=O)NCc2ccccc2)c1C(=O)O 9.51%, Cc1ccsc1CN(C(=O)c1oc2ccc(Br)cc2c1C)C1CCS(=O)(=O)C1 (stereo unspecified) -9.42%, Cc1cc(N2CCN(C)CC2)nc2ccc(NC(=O)Nc3cccc(Cl)c3)cc12 -10.4%, O=C(CSc1ncc(-c2ccccc2)[nH]1)Nc1ccc(Cl)cc1 -19.2%, Cc1ccc(CNc2nc(-c3ccco3)nn2S(=O)(=O)c2ccc3ccccc3c2)cc1 -25.6%, O=C(NCCN1CCN(c2cccc(Cl)c2)CC1)Nc1ccccc1C(F)(F)F -2.77%, Cc1c(C)n(Cc2ccc(F)cc2)c2ccc(C(=O)NCc3ccco3)cc12 24.4%, CCOc1ccc(CCNC(=O)Cn2nnc(-c3ccccc3Cl)n2)cc1OCC -6.71%, CSc1ncc(C(=O)N2CCN(c3cccc(Cl)c3)CC2)c(C)n1 -6.47%, O=C(CCCn1c(=O)c2cccn2c2cccnc21)NCc1ccccc1Br 2.82%, O=C(CC1C(=O)N(c2ccccc2)C(=O)N1CCc1cccs1)Nc1ccc(F)cc1 (stereo unspecified) 0.418%, CCOC(=O)c1sc2ccccc2c1S(=O)(=O)N1CCN(c2cccc(C)c2)C(C)C1 (stereo unspecified) -3.88%, COc1ccc2c(c1)CC(C(=O)NCCCN1CCN(c3cccc(Cl)c3)CC1)CO2 (stereo unspecified) -25.3%, Cc1ccc(S(=O)(=O)Nc2cc3c(cc2NCc2ccccc2)n(C)c(=O)n3C)cc1 -1.99%, Cc1cccc(-c2nnn3c2nc(NCc2ccc4c(c2)OCO4)c2ccccc23)c1 63.6%, COc1cccc2c1ncc1c(-c3ccc(C)cc3)nn(-c3ccc(F)cc3)c12 -7.02%, CC(=O)OCC(=O)[C@@]12OC(C)(C)O[C@H]1C[C@H]1[C@@H]3C[C@H](F)C4=CC(=O)C=C[C@]4(C)[C@@]3(F)[C@@H](O)C[C@@]12C 25.4%, COc1ccc(CCNC(=O)c2cnn(-c3cccc(C)c3)c2C2CCN(C(=O)OC(C)(C)C)CC2)cc1OC -8.4%, CC(C)COc1ccc(C(=O)N2CCCCC2CCN2CCCCC2)cc1 (stereo unspecified) -14.1%, CC(=O)c1ccc(NC(=O)c2noc3c2CSc2ccccc2-3)cc1 -24.1%, CC(c1ccccc1)n1cc2c(c1-c1ccccc1Br)c(=O)n(C)c(=O)n2C (stereo unspecified) -14.1%, COc1ccc(-c2cnc(C)o2)cc1S(=O)(=O)Nc1c(C)cc(C)cc1C 3.28%, Cc1ccc(CNC(=O)c2c(O)nc3cc(C)ccn3c2=O)cc1 -3.03%, CCc1ccc(C2=C(C)C(N3CCC(C(=O)NCc4ccccc4)CC3)=NS2(=O)=O)cc1 -6.69%, Cc1ccc2c(c1)-c1c(cnc3cc(-c4ccc(F)cc4)nn13)CO2 42.6%, COc1cccc(NC(=O)CCc2c(C)nc3nc(CNC(=O)c4cccc(F)c4)nn3c2C)c1 -9.84%, CCCCOc1cccc(C(=O)Nc2cc(NC(=O)c3ccco3)ccc2OC)c1 -3.18%, CCc1ccc(CN2CCc3nc(N4CCN(c5ccccc5F)CC4)ncc3C2)cc1 4.95%, Cc1ccc(Cl)cc1N1CCN(C(=O)c2c(C)oc3ncnc(N4CCCCC4)c23)CC1 0.637%, Cc1oc2ccc(O)c(CN3CCCC3)c2c1C(=O)Nc1ccc(C(C)C)cc1 -1.25%, Cc1c(Cl)cccc1NC(=O)C1CCCN(c2ncnc3onc(C)c23)C1 (stereo unspecified) -1.22%, CCOC(=O)N1CCC(NC(=O)c2cnn(-c3cccc(F)c3)c2-n2cccc2)CC1 -7.18%, Cc1ccc(-c2nnc(Nc3cccc(O)c3)c3ccccc23)cc1S(=O)(=O)NCC1CCCO1 (stereo unspecified) -7.97%, Cc1ccc(Cl)cc1N1CCN(C(=O)c2ccc3c(c2)CCN3S(=O)(=O)c2ccccc2)CC1 0.245%, COc1ccc(CCC(=O)NCc2nc3cccnc3n2Cc2ccc(F)cc2)cc1 1.72%, CC1CCN(S(=O)(=O)c2ccc3c(c2)c(=O)c(C(=O)NC(C)c2ccccc2)cn3C)CC1 (stereo unspecified) -2.67%, NS(=O)(=O)c1ccc(CCNc2ncnc3c2cnn3-c2cccc(Cl)c2)cc1 -4.47%, O=C(NCCc1ccccc1)C1CCN(Cc2cc3ccccc3n2Cc2cccc(Cl)c2)CC1 0.297%, O=C(NCCc1ccccc1)c1ccc2c(c1)N(Cc1ccccc1)C(=O)c1ccccc1S2(=O)=O 2.29%, COc1cccc(Nc2sc(C(=O)c3ccc(Cl)cc3)c(N)c2C(=O)NCc2ccc(C)cc2)c1 -2.81%, COc1ccc(Cl)cc1NC(=O)c1ccc2c(c1)CCN2S(C)(=O)=O 5.74%, CCOc1cc(C(=O)Nc2cccc3cccnc23)cc(OCC)c1OCC -1.3%, Cc1cc(NC(=O)CSc2nc(-c3ccccc3C)nc3c2c(=O)n(C)c(=O)n3C)no1 5.53%, CCOC(=O)CN(Cc1ccccc1)C(C(=O)NC1CCCCC1)c1ccc(OC)cc1 (stereo unspecified) -8.26%, Cc1ccc(Nc2nc3ccccc3c3nnc(C)n23)c(C)c1 9.05%, CCCCN(CCCC)CCNC(=O)CN1C(=O)CSc2ccc(S(=O)(=O)N3CCOCC3)cc21 5.29%, O=C(Nc1cccc(C(F)(F)F)c1)N1CC2CCCN2c2ccccc21 (stereo unspecified) -15.3%, COc1ccc(-n2nc(C(=O)Nc3ccc(Cl)cn3)c3c4ccccc4n(C)c3c2=O)cc1 0.866%, CCCOc1ccc(CNC(=O)c2ccc(C)c(-n3c(C)nc4cccnc43)c2)cc1 0.292%, Cc1oc2ncn(C)c(=O)c2c1C(=O)NCCCN1CCCCC1C (stereo unspecified) 1.27%, CC(=O)c1cccc(NC(=O)Nc2nnc(N3CCCC3)s2)c1 11.8%, COc1cccc(CNC(=O)c2ccc3c(=O)n4nc(Nc5ccccc5)sc4nc3c2)c1 1.18%, CCOC(=O)c1c(C)n(-c2ccccc2)c2ccc(OC(=O)c3cccc(C)c3)cc12 0.52%, CCN1CCN(C(c2ccc(C)cc2)c2c(O)cc(C)n(Cc3ccco3)c2=O)CC1 (stereo unspecified) 2.96%, CN(Cc1ccccc1)S(=O)(=O)c1ccc2[nH]c3c(c2c1)CCCCC3 -1.73%, Cc1ccc(N2CCN(C(=O)c3cnn(-c4ccc(F)cc4F)c3C3CCN(C(=O)OC(C)(C)C)CC3)CC2)c(C)c1 7.3%, COc1ccc(-n2nc(C(=O)O)c(=O)n(C)c2=O)cc1 0.925%, O=C(O)CCC=CCC[C@@H]1[C@H](N2CCCCC2)[C@@H](O)C[C@@H]1OCc1ccc(-c2ccccc2)cc1 -3.37%, COc1cc(OC)c(N(C)C(=O)c2cn(C3CCCC3)c(=O)c3c2c2ccccc2n3C)cc1Cl 18.1%, CCN1C(=O)C(Cc2nc3ccccc3c(=O)n2C)c2cc(C)ccc21 (stereo unspecified) 0.164%, CCc1ccc(S(=O)(=O)c2nnn3c2nc(NCc2ccccc2)c2cc(Cl)ccc23)cc1 4.12%, COc1ccccc1-c1nc2cc(NC(=O)c3ccccc3Cl)ccc2o1 -7.73%, COc1cc(NS(=O)(=O)c2ccc(-c3cc(C)no3)cc2)cc(OC)c1 -9.5%, Cc1ccc(-c2csc3ncnc(Nc4ccc(C(=O)O)cc4)c23)cc1 -9.92%
